Measured values taken from PubChem BioAssay AID250 (DTP/NCI, 2004).
“And” between values parts separate entries of the source, which are not always exact repeats. Equal values may be shown once. Further values from the same series stand in other lists. Toxic doses and inconclusive results are not listed. Rule for the calls: active = survival T/C of 150% or more; inactive = T/C below 125% in these data.

Test system: BDF1 mice, L1210 leukemia sc, survival T/C
Test: NCI In Vivo Anticancer Drug Screen. Data for tumor model L1210 Leukemia (subcutaneous) in B6D2F1 (BDF1) mice
Conditions: higher = longer survival
Description: The antitumor activity of compounds was measured in mice bearing transplantable tumors. Survival or tumor size were measured and the results are expressed as the measurement made in the treated group (T) divided by the measurement made in the vehicle treated control group (C). The tumor model used in this assay is L1210 Leukemia (subcutaneous) in B6D2F1 (BDF1) mice

Measured: T/C

CN(Cc1cnc2nc(N)nc(N)c2n1)c1ccc(C(=O)N[C@@H](CCC(=O)O)C(=O)O)cc1
active: endpoint: mean survival time, dose: 1.08 mg/kg/injection, schedule: Q01DX009 (sc), vehicle: other 175 % of control | endpoint: mean survival time, dose: 1.5 mg/kg/injection, schedule: Q01DX015 (ip), vehicle: other 180 % of control and 188 % of control and 203 % of control | endpoint: mean survival time, dose: 1.8 mg/kg/injection, schedule: Q01DX009 (sc), vehicle: other 194 % of control | endpoint: mean survival time, dose: 2.0 mg/kg/injection, schedule: Q01DX015 (ip), vehicle: other 178 % of control and 182 % of control and 198 % of control | endpoint: mean survival time, dose: 3.0 mg/kg/injection, schedule: Q01DX009 (sc), vehicle: other 174 % of control | endpoint: mean survival time, dose: 4.0 mg/kg/injection, schedule: Q01DX009 (ip), vehicle: sodium bicarbonate 187 % of control | endpoint: median survival time, dose: 0.05 mg/kg/injection, schedule: Q## X Z (sc), vehicle: other 255 % of control | endpoint: median survival time, dose: 0.08 mg/kg/injection, schedule: Q## X Z (sc), vehicle: other 233 % of control | endpoint: median survival time, dose: 0.14 mg/kg/injection, schedule: Q## X Z (sc), vehicle: other 233 % of control | endpoint: median survival time, dose: 0.23 mg/kg/injection, schedule: Q## X Z (sc), vehicle: other 177 % of control | endpoint: median survival time, dose: 0.23 mg/kg/injection, schedule: Q#A X Z (sc), vehicle: other 266 % of control | endpoint: median survival time, dose: 0.37 mg/kg/injection, schedule: Q01DX Z (sc), vehicle: sodium bicarbonate 300 % of control | endpoint: median survival time, dose: 0.38 mg/kg/injection, schedule: Q01DX Z (sc), vehicle: other 268 % of control | endpoint: median survival time, dose: 0.39 mg/kg/injection, schedule: Q01DX008 (sc), vehicle: other 200 % of control | endpoint: median survival time, dose: 0.39 mg/kg/injection, schedule: Q#A X Z (sc), vehicle: other 261 % of control | endpoint: median survival time, dose: 0.4 mg/kg/injection, schedule: Q01DX Z (sc), vehicle: other 237 % of control | endpoint: median survival time, dose: 0.49 mg/kg/injection, schedule: Q01DX Z (sc), vehicle: other 227 % of control | endpoint: median survival time, dose: 0.52 mg/kg/injection, schedule: Q01DX Z (sc), vehicle: other 209 % of control and 227 % of control and 255 % of control | endpoint: median survival time, dose: 0.54 mg/kg/injection, schedule: Q01DX Z (sc), vehicle: other 244 % of control | endpoint: median survival time, dose: 0.54 mg/kg/injection, schedule: Q01DX Z (sc), vehicle: water 316 % of control | endpoint: median survival time, dose: 0.59 mg/kg/injection, schedule: Q01DX Z (sc), vehicle: other 210 % of control | endpoint: median survival time, dose: 0.62 mg/kg/injection, schedule: Q01DX Z (sc), vehicle: other 220 % of control and 233 % of control | endpoint: median survival time, dose: 0.64 mg/kg/injection, schedule: Q01DX Z (ip), vehicle: other 244 % of control | endpoint: median survival time, dose: 0.65 mg/kg/injection, schedule: Q01DX008 (sc), vehicle: other 220 % of control | endpoint: median survival time, dose: 0.65 mg/kg/injection, schedule: Q01DX009 (sc), vehicle: other 177 % of control | endpoint: median survival time, dose: 0.65 mg/kg/injection, schedule: Q01DX025 (sc), vehicle: other 173 % of control and 177 % of control | endpoint: median survival time, dose: 0.65 mg/kg/injection, schedule: Q01DX Z (ip), vehicle: other 250 % of control | endpoint: median survival time, dose: 0.65 mg/kg/injection, schedule: Q01DX Z (sc), vehicle: saline 281 % of control | endpoint: median survival time, dose: 0.65 mg/kg/injection, schedule: Q01DX Z (sc), vehicle: water 263 % of control | endpoint: median survival time, dose: 0.65 mg/kg/injection, schedule: Q#A X Z (sc), vehicle: other 216 % of control | endpoint: median survival time, dose: 0.67 mg/kg/injection, schedule: Q01DX Z (sc), vehicle: other 250 % of control | endpoint: median survival time, dose: 0.75 mg/kg/injection, schedule: Q01DX012 (ip), vehicle: sodium bicarbonate 188 % of control | endpoint: median survival time, dose: 0.75 mg/kg/injection, schedule: Q01DX Z (sc), vehicle: sodium bicarbonate 266 % of control | endpoint: median survival time, dose: 0.78 mg/kg/injection, schedule: Q01DX Z (iv), vehicle: other 231 % of control | endpoint: median survival time, dose: 0.79 mg/kg/injection, schedule: Q01DX Z (sc), vehicle: other 216 % of control | endpoint: median survival time, dose: 0.84 mg/kg/injection, schedule: Q01DX Z (sc), vehicle: other 208 % of control and 273 % of control | endpoint: median survival time, dose: 0.86 mg/kg/injection, schedule: Q01DX Z (sc), vehicle: water 305 % of control | endpoint: median survival time, dose: 0.89 mg/kg/injection, schedule: Q01DX Z (sc), vehicle: other 275 % of control | endpoint: median survival time, dose: 0.94 mg/kg/injection, schedule: Q01DX Z (sc), vehicle: other 227 % of control | endpoint: median survival time, dose: 0.98 mg/kg/injection, schedule: Q01DX Z (sc), vehicle: other 266 % of control | endpoint: median survival time, dose: 1.07 mg/kg/injection, schedule: Q01DX Z (ip), vehicle: other 250 % of control | endpoint: median survival time, dose: 1.08 mg/kg/injection, schedule: Q01DX008 (sc), vehicle: other 225 % of control | endpoint: median survival time, dose: 1.08 mg/kg/injection, schedule: Q01DX015 (sc), vehicle: other 183 % of control and 184 % of control | endpoint: median survival time, dose: 1.08 mg/kg/injection, schedule: Q01DX025 (sc), vehicle: other 188 % of control and 189 % of control | endpoint: median survival time, dose: 1.08 mg/kg/injection, schedule: Q01DX Z (sc), vehicle: saline 275 % of control | endpoint: median survival time, dose: 1.08 mg/kg/injection, schedule: Q01DX Z (sc), vehicle: water 245 % of control | endpoint: median survival time, dose: 1.09 mg/kg/injection, schedule: Q01DX Z (sc), vehicle: other 227 % of control and 229 % of control and 250 % of control | endpoint: median survival time, dose: 1.12 mg/kg/injection, schedule: Q01DX Z (sc), vehicle: other 204 % of control | endpoint: median survival time, dose: 1.25 mg/kg/injection, schedule: Q01DX Z (sc), vehicle: other 227 % of control and 235 % of control | endpoint: median survival time, dose: 1.3 mg/kg/injection, schedule: Q01DX Z (iv), vehicle: other 237 % of control | endpoint: median survival time, dose: 1.3 mg/kg/injection, schedule: Q01DX Z (oral), vehicle: other 237 % of control | endpoint: median survival time, dose: 1.31 mg/kg/injection, schedule: Q01DX Z (sc), vehicle: other 204 % of control | endpoint: median survival time, dose: 1.33 mg/kg/injection, schedule: Q01DX Z (sc), vehicle: other 250 % of control | endpoint: median survival time, dose: 1.4 mg/kg/injection, schedule: Q01DX Z (sc), vehicle: other 225 % of control and 265 % of control | endpoint: median survival time, dose: 1.44 mg/kg/injection, schedule: Q01DX Z (sc), vehicle: water 300 % of control | endpoint: median survival time, dose: 1.5 mg/kg/injection, schedule: Q01DX Z (sc), vehicle: sodium bicarbonate 333 % of control | endpoint: median survival time, dose: 1.79 mg/kg/injection, schedule: Q01DX Z (ip), vehicle: other 177 % of control | endpoint: median survival time, dose: 1.8 mg/kg/injection, schedule: Q01DX008 (sc), vehicle: other 183 % of control and 205 % of control | endpoint: median survival time, dose: 1.8 mg/kg/injection, schedule: Q01DX010 (sc), vehicle: other 177 % of control | endpoint: median survival time, dose: 1.8 mg/kg/injection, schedule: Q01DX013 (sc), vehicle: other 174 % of control | endpoint: median survival time, dose: 1.8 mg/kg/injection, schedule: Q01DX025 (sc), vehicle: other 194 % of control and 200 % of control | endpoint: median survival time, dose: 1.8 mg/kg/injection, schedule: Q01DX Z (ip), vehicle: other 260 % of control | endpoint: median survival time, dose: 1.8 mg/kg/injection, schedule: Q01DX Z (oral), vehicle: other 200 % of control | endpoint: median survival time, dose: 1.8 mg/kg/injection, schedule: Q01DX Z (sc), vehicle: saline 268 % of control | endpoint: median survival time, dose: 1.8 mg/kg/injection, schedule: Q01DX Z (sc), vehicle: water 213 % of control | endpoint: median survival time, dose: 1.8 mg/kg/injection, schedule: Q02DX Z (sc), vehicle: other 177 % of control | endpoint: median survival time, dose: 1.81 mg/kg/injection, schedule: Q01DX Z (sc), vehicle: other 191 % of control and 218 % of control and 240 % of control | endpoint: median survival time, dose: 1.87 mg/kg/injection, schedule: Q01DX Z (sc), vehicle: other 191 % of control | endpoint: median survival time, dose: 1.88 mg/kg/injection, schedule: Q01DX Z (sc), vehicle: other 216 % of control | endpoint: median survival time, dose: 1.95 mg/kg/injection, schedule: Q01DX Z (sc), vehicle: other 250 % of control | endpoint: median survival time, dose: 2.16 mg/kg/injection, schedule: Q01DX Z (iv), vehicle: other 243 % of control | endpoint: median survival time, dose: 2.16 mg/kg/injection, schedule: Q01DX Z (oral), vehicle: other 212 % of control | endpoint: median survival time, dose: 2.18 mg/kg/injection, schedule: Q01DX Z (sc), vehicle: other 191 % of control | endpoint: median survival time, dose: 2.2 mg/kg/injection, schedule: Q01DX Z (sc), vehicle: other 195 % of control | endpoint: median survival time, dose: 2.33 mg/kg/injection, schedule: Q01DX Z (sc), vehicle: other 173 % of control | endpoint: median survival time, dose: 2.4 mg/kg/injection, schedule: Q01DX Z (sc), vehicle: water 211 % of control | endpoint: median survival time, dose: 2.5 mg/kg/injection, schedule: Q01DX Z (sc), vehicle: other 180 % of control and 188 % of control | endpoint: median survival time, dose: 3.0 mg/kg/injection, schedule: Q01DX008 (sc), vehicle: other 175 % of control and 188 % of control | endpoint: median survival time, dose: 3.0 mg/kg/injection, schedule: Q01DX013 (sc), vehicle: other 184 % of control | endpoint: median survival time, dose: 3.0 mg/kg/injection, schedule: Q01DX015 (sc), vehicle: other 177 % of control and 181 % of control | endpoint: median survival time, dose: 3.0 mg/kg/injection, schedule: Q01DX025 (sc), vehicle: other 180 % of control and 183 % of control | endpoint: median survival time, dose: 3.0 mg/kg/injection, schedule: Q01DX Z (sc), vehicle: saline 193 % of control | endpoint: median survival time, dose: 3.0 mg/kg/injection, schedule: Q02DX Z (sc), vehicle: other 244 % of control | endpoint: median survival time, dose: 3.6 mg/kg/injection, schedule: Q01DX Z (oral), vehicle: other 262 % of control | endpoint: median survival time, dose: 5.0 mg/kg/injection, schedule: Q01DX Z (oral), vehicle: other 205 % of control | endpoint: median survival time, dose: 5.0 mg/kg/injection, schedule: Q02DX009 (sc), vehicle: other 193 % of control | endpoint: median survival time, dose: 5.0 mg/kg/injection, schedule: Q02DX Z (sc), vehicle: other 194 % of control and 200 % of control | endpoint: median survival time, dose: 23.0 mg/kg/injection, schedule: Q04DX005 (sc), vehicle: sodium bicarbonate 216 % of control | endpoint: median survival time, dose: 23.0 mg/kg/injection, schedule: Q## X Z (sc), vehicle: other 176 % of control and 178 % of control
